# Measured values: the supplement of paper PMC11417369
# ± gives the standard deviation of the averaged measurements. Some of the results follow.
# Test system: PfAP2-I AP2 domain 3 (GST-tagged)
# Assay: gcPBM binding intensity (ln(normalized median fluorescence intensity)); higher = stronger DNA binding
# Outline: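 Binding of GST-tagged P. falciparum DNA-binding domains, expressed in E. coli and used at about 25 μg on average, was carried out for 1 h in 1× PBS containing 1% milk, 0.2 mg/ml BSA, 0.5% salmon testes DNA and 0.03% Triton X-100. The target was an Agilent 4 × 180k array of primer-extended double-stranded 36-bp intergenic genomic probes plus negative controls, read with Alexa488 anti-GST antibody at 488 nm. Binding intensity is the highest Masliner-normalised natural-log median intensity across replicate spots of either probe orientation.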
row,Sequence,gcPBM binding intensity (ln)
1,TGTGTGTGTTCATGGGTGCTTTAATACTATTATAGG [GTGCAC_site9465],11 ± 0.61
2,TATCAATTTTTCTGGCTATCCAATTAGGGGAAGCCA [CACACA_negctrl_site1045],7.2 ± 0.46
3,CAAAAAATTTGACGTAGTACTTAAAAAAAAAAAAAA [XGTACX_site4523],7.95 ± 0.54
4,ATTTGCTCACAAGAAGCACACAAAAAAAGAAAAAAA [CACACA_site9338],7.96 ± 0.42
5,ATGAATTATAAATATTCACACAATATTTTTCATATG [CACACA_site4484],7.67 ± 0.61
6,AGTGTGCTCAGCTTAGCACAAATTGGAATACCATGT [CACACA_negctrl_site367],8.31 ± 0.67
7,GAAAATGAAATCCTTGCATGTAAAATTAAAATAGAA [TGCATGCA_site569],7.67 ± 0.79
8,TTTTTTTCTTAAAGATGTACTTTTTAAAAATAATCT [XGTACX_site1429],7.87 ± 0.39
9,GTAGTAATAAATTAAAGTACAGAATATATTATACTA [XGTACX_site2809],7.67 ± 0.45
10,ACAAAACTTTTAAGAACACACAAAAATGTACTATCG [CACACA_site7245],7.56 ± 0.61
11,CATTTACATGCCAACATGCACTGAACAATCTTTATA [GTGCAC_site9797],8.61 ± 0.37
12,TACAAAAAAAAATAAAATACATATATATATATATAT [XGTACX_negctrl_site608],9.71 ± 0.12
13,CCCTATATAAATAGCTGTACATTTGAACATGTTCAG [XGTACX_site2187],7.84 ± 0.45
14,TTTTATGAATAATTATGTACATAACAAATGATATAT [XGTACX_site8318],7.98 ± 0.48
15,TTTACAGGAAAAAATACACACATTATTTTACCTTAT [CACACA_site2833],7.62 ± 0.45
16,ACATGCCAAAATCTAATACAATAATAATAAAAAAAA [XGTACX_negctrl_site160],7.5 ± 0.6
17,CAATAAAAATTAAAATGTACAAATAAATATAAATAT [XGTACX_site7265],7.63 ± 0.42
18,CAATAAATCGAAATCGTGCACGGACACATGCAGTAG,10.4 ± 0.56
19,ATATATATAATAAGTGGTACAAGTTATTCATTAAAT [XGTACX_site7063],8.14 ± 0.42
20,GGTTCATTTATATGGAGTACAAAAAATATGTATATA [XGTACX_site8209],7.93 ± 0.37
21,AAATAATATAAATACACACACACATATATAAATACA [CACACA_site4465],7.79 ± 0.59
22,TAAAGTTATATATTATGTACATATTTGTATACATTT [XGTACX_site2516],7.66 ± 0.35

row,Sequence,gcPBM binding intensity (ln)
1,TTTTTTTATACAATTTTATATATTAAATATTATAAT [CACACA_negctrl_site226],7.62 ± 0.52
2,AAAGAAAACGGACTTTGTACTTAAATATAATATAAA [XGTACX_site8585],7.69 ± 0.34
3,AAATATAGTATTAAAACACACATTTATATAAAAAGG [CACACA_site1482],7.72 ± 0.53
4,TGAACTCATAGGAAAACACACATATGTGTAATATAT [CACACA_site4267],7.95 ± 0.61
5,AACAAAAAAACAAACACACACACACGCATATTTATA [CACACA_site7680],7.8 ± 0.46
6,AAAAACAACACAGATAAATTAACACACACACACATA [XGTACX_negctrl_site588],8.51 ± 0.16
7,TTATGTGATTTTAATTGTACATAAATATTTGTTAAC [XGTACX_site3489],7.82 ± 0.23
8,TATATACTCAGACATACACACAAATAAAAAAACACC [CACACA_site5820],8.97 ± 0.11
9,CACGCATACAGACACACACACACACGGATATAAATA [CACACA_site6445],8.09 ± 0.33
10,TATTTGTATAAATAAAAATAATATATATCAAATAAC [CACACA_negctrl_site218],7.57 ± 0.55
11,AACACCCACAGACACACACACAAAAATGATTAAAAA [CACACA_site2433],8.11 ± 0.13
12,ACAAAAATATTATATTGTACATTATTAGTTCATATT [XGTACX_site6750],7.58 ± 0.4
13,TTTTTATATAAATAATGTACATTTGGTTTTATTATA [XGTACX_site2125],7.76 ± 0.43
14,AAAAAAAAAAAACACACACACACACCGAAATATATA [CACACA_site4261],7.82 ± 0.33
15,TTCAGCATAAACACTTGTACATATATACTAAAAATT [XGTACX_site7272],7.91 ± 0.4
16,AATTTTTTTTTTTTTTTTTCTTTTGTAATAAACCAT [XGTACX_negctrl_site334],7.63 ± 0.36
17,ATTTCCCCAACGTGGGTGCATATATTTATGTGTGAA [GTGCAC_site9439],10.9 ± 0.82
18,ATTATATTTTTAAGTACACACATATAAATAAATATA [CACACA_site7682],8.11 ± 0.19
19,TATTAATTATTTTACTGTACTAATAATACTTTTATT [XGTACX_site2179],7.93 ± 0.39
20,ATTATGTGAGGTAACTAAATATGTACGTAACGAAGA [CACACA_negctrl_site1400],8.27 ± 0.28
21,ATATATATATATGTGTGTACTTAAAAATATAATGCA [XGTACX_site7753],9.55 ± 0.085
22,TAATGTATAATTAATCGTACATTAGATTGTTGTGTT [XGTACX_site52],7.58 ± 0.23
